Test results from paper PMC12040169 (PLOS Biology, 2025).
The other results are listed elsewhere or left out.

test system: T1, C. trachomatis L2/434/Bu expressing GFP (CTL2-GFP); parameters: species or system HeLa; C. trachomatis total inclusion area by high-content imaging, normalised to DMSO; conditions: total inclusion area; 28.5 h, 10 µM; inhibitor
T1 construct: L2/434/Bu GFP intracellular growth in HeLa cells
Summary of the method: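 High-content imaging followed the bulk GFP/resorufin measurement: fixed, Hoechst-stained cells were scored for GFP inclusions and host nuclei per well. Total inclusion area and count served as growth proxies, nuclei number as the viability proxy. MIC calculation matched the bulk assay.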

Compound	% of control remaining
CC(C)(C)C1=CC2=NC3(CCCCCCC3)[C@@H]3C[C@@H](O)[C@@H](O)[C@@H]3N2O1 [CBK303256]	114.361
c1cnc(N2CCN(Cc3ccc4c(c3)OCO4)CC2)c(OCCN2CCOCC2)n1 [CBK082894T]	84.4636
Cc1ccccc1CN1CC[C@H]2[C@@H](C1)[C@H](c1ccsc1)CN2C(=O)c1ccc(F)cc1 [CBK285638]	103.38
CC(C)(C)c1csc(NC(=O)C2CC(=O)N(c3cccc(C(F)(F)F)c3)C2)n1 (stereo not drawn) [CBK175545]	10.6716
CN1CN=C2SC3(COC(c4cccc(Br)c4)OC3)C(=O)N2C1 (stereo not drawn) [CBK263700]	103.14
C(=N\Nc1nc2ccccc2[nH]1)/c1cccnc1 [CBK026357]	95.5094
C[C@H]1[C@@H]2[C@@H](O)C([C@H](C)C(=O)NC3CC3)CC[C@@]2(C)CC[C@@H]1NC(=O)c1cncnc1 (stereo partly drawn) [CBK289453]	103.483
CCN1CCN(C(=O)c2cccc3[nH]ccc23)CC1 [CBK200246]	90.6177
COc1ccc(C2(O)CCN(CC(O)c3ccc(C(C)(C)C)cc3)CC2)cc1 (stereo not drawn) [CBK286333]	72.6422
CC1(C)CC(=O)C=C(NCC2CCNCC2)C1 [CBK027580]	19.8794
COc1cc2oc(=O)c(CC(=O)N[C@@H](CC(C)C)C(=O)O)c(C)c2cc1Cl [CBK286772]	94.286
Cc1csc2c(C3CCN(C(=O)c4cnn(C)c4)CC3)nc(C)n12 [CBK285250]	81.7451
Cc1ccc(-c2ccn(C(C)C(=O)N(C)C)n2)cc1 (stereo not drawn) [CBK016069]	52.4943
Cc1cc2nc(NS(C)(=O)=O)n(S(C)(=O)=O)c2cc1C [CBK023112]	101.39
CCOC(=O)c1[nH]c2ccccc2c1NC(=O)c1cc(F)cc(Cl)c1 [CBK160143]	98.0694
CC(C)c1nc(CC(=O)NCCC(=O)N2CCCc3ccccc32)cs1 [CBK305437]	53.4503
COc1ccc(C(=O)C2CCN(Cc3cccc4cccnc34)CC2)cc1 [CBK295192]	76.3116
Clc1ccccc1CN(CCCn1ccnc1)Cc1c[nH]cn1 [CBK282988]	76.3273
O=C(NC1(c2cccc(F)c2)CCCC1)c1cnccn1 [CBK283619]	89.478
COc1ccc2[nH]cc(C(C(=O)O)N3CCN(Cc4ccccn4)CC3)c2c1 (stereo not drawn) [CBK286846]	84.1867
COc1ncc(-c2nccnc2N2CCN(C)CC2)c(OC)n1 [CBK036595]	120.787
